# Among all 310,000 compounds or so, about 2,200 (0.71%) showed an effect of 50% or more. Effects have a minus sign here. The list shows a part of the results.
# Target: human ether-à-go-go-related gene (hERG) potassium channel (human, UniProt Q12809)
# Assay: primary screen, population patch clamp on CHO cells stably expressing hERG
# Sequence of human ether-à-go-go-related gene (hERG) potassium channel (Q12809 whole entry, looked up): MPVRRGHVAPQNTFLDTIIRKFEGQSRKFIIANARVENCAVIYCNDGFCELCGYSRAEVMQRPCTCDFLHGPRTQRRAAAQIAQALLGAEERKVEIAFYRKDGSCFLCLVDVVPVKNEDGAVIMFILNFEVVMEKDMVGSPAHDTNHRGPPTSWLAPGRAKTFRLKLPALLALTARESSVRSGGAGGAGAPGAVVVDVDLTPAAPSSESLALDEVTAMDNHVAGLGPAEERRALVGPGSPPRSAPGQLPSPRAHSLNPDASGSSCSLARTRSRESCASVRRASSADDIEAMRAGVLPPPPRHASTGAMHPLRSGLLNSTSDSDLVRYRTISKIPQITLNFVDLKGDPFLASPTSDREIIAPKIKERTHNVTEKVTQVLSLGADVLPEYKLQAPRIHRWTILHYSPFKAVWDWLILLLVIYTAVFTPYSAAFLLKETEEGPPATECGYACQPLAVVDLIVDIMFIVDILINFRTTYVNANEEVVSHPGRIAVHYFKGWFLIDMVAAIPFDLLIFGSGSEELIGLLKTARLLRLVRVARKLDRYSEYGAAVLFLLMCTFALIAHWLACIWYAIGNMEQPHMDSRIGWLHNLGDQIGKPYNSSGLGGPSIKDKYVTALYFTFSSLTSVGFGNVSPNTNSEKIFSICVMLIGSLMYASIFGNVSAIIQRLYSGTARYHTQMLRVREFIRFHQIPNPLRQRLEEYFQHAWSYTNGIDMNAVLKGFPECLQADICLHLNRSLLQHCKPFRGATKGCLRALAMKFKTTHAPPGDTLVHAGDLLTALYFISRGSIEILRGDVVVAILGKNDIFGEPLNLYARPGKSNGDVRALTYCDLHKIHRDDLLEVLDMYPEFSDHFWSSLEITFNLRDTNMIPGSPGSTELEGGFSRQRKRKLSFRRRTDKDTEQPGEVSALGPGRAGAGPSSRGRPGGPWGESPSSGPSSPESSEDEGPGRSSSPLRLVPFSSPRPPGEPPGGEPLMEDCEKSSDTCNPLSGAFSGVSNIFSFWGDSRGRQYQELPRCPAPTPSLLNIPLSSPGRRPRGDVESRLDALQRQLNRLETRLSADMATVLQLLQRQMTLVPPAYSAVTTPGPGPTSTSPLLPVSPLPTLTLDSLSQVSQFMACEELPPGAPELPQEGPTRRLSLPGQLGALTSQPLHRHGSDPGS
row,SMILES,"hERG current change (%, negative = inhibition) at 1uM [%]"
1,N#CC1=C(N)C(C#N)(C#N)C2(CCC3(CC2)OCCO3)C2CC3(CC=C12)OCCO3 (centres unmarked),-5.39
2,CN1C(=O)C(Cc2nc3ccccc3c(=O)n2-c2ccccc2)c2ccccc21 (centres unmarked),-4.99
3,O=C(Nc1ccc(S(=O)(=O)C(F)F)cc1)c1cccc(S(=O)(=O)N2CCOCC2)c1,1.63
4,O=C1CCN(CCc2ccccc2)CCN1[C@H](CO)Cc1ccccc1,7.43
5,O=C(O)CCC(=O)N1N=C(c2ccccc2)CC1c1ccc(Br)cc1 (centres unmarked),14.5
6,O=C1CN(C(=O)CSc2nnnn2C2CC2)c2ccccc2N1,6.49
7,C1=CCC(CN2CCN(C3CCCCCC3)CC2)CC1.O=C(O)C(=O)O (centres unmarked),-7.17
8,CCc1ccc(C(=O)CSc2nnc(C3CC3)n2C2CC2)cc1,-0.707
9,CCNc1ccc(C(=O)N/N=C/c2c(C)nn(-c3ccccc3)c2N2CCCC2)cc1[N+](=O)[O-],17.2
10,Cc1cc(-c2onc(C)c2C(=O)O)no1,8.64
11,Cc1ccc(-c2csc3nc[nH]c(=O)c23)cc1C,18.1
12,COc1cc(CC(=O)O)ccc1OCc1ccccc1,9.17
13,Nc1ccc(-c2sc(N)nc2-c2ccccc2)cc1,5.15
14,CC(=O)Nc1c2c(nn1-c1ccccc1)CSC2,13.5
15,CC(=O)Nc1ccc(-n2nnnc2SCC(=O)NCc2cccs2)cc1,2.9
16,O=C(N/N=C/c1ccc(OCCCF)cc1)c1cc(OCC(F)(F)F)ccc1OCC(F)(F)F,10.4
17,CC(C)(C)n1nc2c(c1NC(=O)Cc1ccc(F)cc1)CSC2,7.49
18,COc1ccc(-c2cn3cccnc3n2)cc1NC(=O)c1cc(OC)c(OC)c(OC)c1,1.63
19,CS(=O)(=O)N1CCCC(C(=O)NCCCN2CCc3ccccc3C2)C1 (centres unmarked),8.29
20,COc1ccc(-c2nc(C(N)=O)c3[nH]c(=O)n(-c4cccc(C)c4)c3n2)c(OC)c1,9.19
21,CC(C)(Oc1ccc(Br)cc1)C(=O)N1CCc2ccccc21,13
22,CC(=O)c1oc2ccccc2c1NC(=O)CCCN1C(=O)c2ccccc2C1=O,14.2

row,SMILES,"hERG current change (%, negative = inhibition) at 1uM [%]"
1,Nc1nc(Cl)cc(Oc2ccc(Cl)cc2)n1,10.1
2,CC(=O)Nc1ccc(S(=O)(=O)NNC(=O)c2ccc(C)cc2)cc1,-11.2
3,CCc1nnc(NC(=O)/C=C/c2ccco2)s1,17.9
4,Cc1c(NC(=O)C(C)c2ccc(CC(C)C)cc2)c(=O)n(-c2ccccc2)n1C (centres unmarked),9.19
5,O=S(=O)(c1cccc(S(=O)(=O)N2CCC(n3nnc4ccccc43)CC2)c1)N1CCCCC1,-13.6
6,COc1ccc(CN2CCN(Cc3cccc(Oc4ccccc4)c3)CC2)c(OC)c1OC.O=C(O)C(=O)O,14.8
7,Cc1ccc(S(=O)(=O)N2CCN(C(=O)c3c(-c4ccccc4)noc3C)CC2)cc1C,3.34
8,CC(C)(C)C(=O)/C=C(\N)c1ccncc1,6.39
9,O=C1CSC(c2ccc([N+](=O)[O-])cc2)N1Cc1ccccc1 (centres unmarked),-6.48
10,CCc1ccc(NC(=O)Cn2ncc3c4ccccc4n(C)c3c2=O)cc1,10.7
11,C#CC1(O)CC(C)NCC1(C)CCC#N (centres unmarked),5.8
12,O=C1CCCCN1CCC(=O)N1CCCC(N2CCN(c3cccc(Cl)c3)CC2)C1 (centres unmarked),3.35
13,Cn1c2ccccc2c2n[nH]c(=O)nc21,8.6
14,Cc1sc2ncn(CC(=O)Nc3cccc(S(N)(=O)=O)c3)c(=O)c2c1-c1ccccc1,12.2
15,Cc1ccc(C)c(-n2nnnc2Sc2nnnn2-c2ccccc2)c1,4.33
16,O=C(O)C1CCCN1C(=O)NC1CCCCC1 (centres unmarked),17.1
17,Cc1cccc(-n2c(=O)c3c(C)c(C)sc3n(CC(N)=O)c2=O)c1,-8.97
18,O=C(CCc1nnc(C2CCCCC2)o1)NCCCOc1cccnc1,14.1
19,COc1ccccc1-c1cc(C(F)(F)F)n2ncc(C(=O)N3CCc4ccccc4C3)c2n1,7.36
20,Cc1cc([N+](=O)[O-])nn1Cc1ccccc1F,14.5
21,COCCn1c(SCC(=O)Nc2cc(C)on2)nc2c(c1=O)SC(C)C2 (centres unmarked),9.29
22,COC(=O)[C@@H]1C[C@@]2(O)[C@@H](O)[C@@H](O)[C@@H](O)C[C@H]2N1C/C=C/c1ccccc1,11.9
